# Results as given in the supplement of paper PMC8728848.
# The list shows a part of the results.
# Columns and labels:
# Experiment in all cases: glycan array binding signal (z-score within array); higher = stronger binding
# Conditions in all cases: glycan notation: IUPAC condensed, linker removed
# [1] = target: Neu5Ac(a2-3)Gal(b1-3)GalNAc(b1-4)[Neu5Ac(a2-8)Neu5Ac(a2-3)]Gal(b1-4)Glc
# How it was run: (§1)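 From the Consortium for Functional Glycomics database, 3228 arrays were curated, keeping only those whose protein sequence was available. Binding is given as a within-array Z-score averaged across arrays sharing a protein sequence and across linkers. Negative Z-scores can be read as non-binding.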
# [2] = target: Neu5Ac(a2-3)Gal(b1-3)GalNAc6S
# How it was run: as §1
# [3] = target: Neu5Ac(a2-3)Gal(b1-3)GlcNAc
# How it was run: as §1
# [4] = target: Neu5Ac(a2-3)Gal(b1-3)GlcNAc(b1-2)Man(a1-3)[Neu5Ac(a2-3)Gal(b1-3)GlcNAc(b1-2)Man(a1-6)]Man(b1-4)GlcNAc(b1-4)GlcNAc
# How it was run: as §1
# [5] = target: Neu5Ac(a2-3)Gal(b1-3)GlcNAc(b1-3)Gal(b1-3)GlcNAc
# How it was run: as §1
# [6] = target: Neu5Ac(a2-3)Gal(b1-3)GlcNAc(b1-3)Gal(b1-4)GlcNAc
# How it was run: as §1
# [7] = target: Neu5Ac(a2-3)Gal(b1-3)GlcNAc(b1-3)GalNAc
# How it was run: as §1
# [8] = target: Neu5Ac(a2-3)Gal(b1-3)GlcNAc6S
# How it was run: as §1
# [9] = target: Neu5Ac(a2-3)Gal(b1-3)[Fuc(a1-4)]GlcNAc
# How it was run: as §1
# [10] = target: Neu5Ac(a2-3)Gal(b1-3)[Fuc(a1-4)]GlcNAc(b1-3)Gal(b1-3)[Fuc(a1-4)]GlcNAc
# How it was run: as §1
# [11] = target: Neu5Ac(a2-3)Gal(b1-3)[Fuc(a1-4)]GlcNAc(b1-3)Gal(b1-4)[Fuc(a1-3)]GlcNAc
# How it was run: as §1
# [12] = target: Neu5Ac(a2-3)Gal(b1-3)[Neu5Ac(a2-3)Gal(b1-4)]GlcNAc
# How it was run: as §1
# [13] = target: Neu5Ac(a2-3)Gal(b1-3)[Neu5Ac(a2-6)]GalNAc
# How it was run: as §1
# Neu5Ac(a2-3)Gal(b1-4)Glc = target: Neu5Ac(a2-3)Gal(b1-4)Glc
# How it was run: as §1
# [14] = target: Neu5Ac(a2-3)Gal(b1-4)GlcNAc
# How it was run: as §1
# [15] = target: Neu5Ac(a2-3)Gal(b1-4)GlcNAc(b1-2)Man(a1-3)[GlcNAc(b1-2)Man(b1-4)GlcNAc(b1-2)Man(a1-6)]Man(b1-4)GlcNAc(b1-4)GlcNAc
# How it was run: as §1
# [16] = target: Neu5Ac(a2-3)Gal(b1-4)GlcNAc(b1-2)Man(a1-3)[Neu5Ac(a2-6)Gal(b1-4)GlcNAc(b1-2)Man(a1-6)]Man(b1-4)GlcNAc(b1-4)GlcNAc
# How it was run: as §1
# [17] = target: Neu5Ac(a2-3)Gal(b1-4)GlcNAc(b1-3)Gal
# How it was run: as §1
# [18] = target: Neu5Ac(a2-3)Gal(b1-4)GlcNAc(b1-3)Gal(b1-3)GlcNAc
# How it was run: as §1
# [19] = target: Neu5Ac(a2-3)Gal(b1-4)GlcNAc(b1-3)Gal(b1-4)GlcNAc
# How it was run: as §1
# [20] = target: Neu5Ac(a2-3)Gal(b1-4)GlcNAc(b1-3)Gal(b1-4)GlcNAc(b1-3)Gal(b1-4)GlcNAc
# How it was run: as §1
# [21] = target: Neu5Ac(a2-3)Gal(b1-4)GlcNAc(b1-3)Gal(b1-4)[Fuc(a1-3)]GlcNAc
# How it was run: as §1
# [22] = target: Neu5Ac(a2-3)Gal(b1-4)GlcNAc(b1-3)GalNAc
# How it was run: as §1
# [23] = target: Neu5Ac(a2-3)Gal(b1-4)GlcNAc(b1-6)[Gal(b1-3)]GalNAc
# How it was run: as §1
# [24] = target: Neu5Ac(a2-3)Gal(b1-4)GlcNAc(b1-6)[Neu5Ac(a2-3)Gal(b1-3)]GalNAc
# How it was run: as §1
# [25] = target: Neu5Ac(a2-3)Gal(b1-4)GlcNAc6S
# How it was run: as §1
# [26] = target: Neu5Ac(a2-3)Gal(b1-4)[Fuc(a1-3)]GlcNAc
# How it was run: as §1
# [27] = target: Neu5Ac(a2-3)Gal(b1-4)[Fuc(a1-3)]GlcNAc(b1-3)Gal
# How it was run: as §1
# [28] = target: Neu5Ac(a2-3)Gal(b1-4)[Fuc(a1-3)]GlcNAc(b1-3)Gal(b1-4)GlcNAc
# How it was run: as §1
# [29] = target: Neu5Ac(a2-3)Gal(b1-4)[Fuc(a1-3)]GlcNAc(b1-3)Gal(b1-4)[Fuc(a1-3)]GlcNAc(b1-3)Gal(b1-4)[Fuc(a1-3)]GlcNAc
# How it was run: as §1
binder,measurement,setting,value
"CwpV (Clostridium difficile), B6EFG6 (protein) MKIPKKIAAMLTVTMIAGSSTAGIASAQTVATNLTGQERYETAVKISQDGWKNADEVVIVNDSSIADALSATPFAKAKNAPILLTSKDKLNDKTKAEIQRLKAKKVYLIGGTSVLSTNIEKEIKDLKISFERISGAERYQTSLELAKKLDAISDVKKIAVVNGEKGLADAVSVGAPAAQNNMPVILADSKNGTAVADKFIKDAGITQSYVVGGESSISEAVKNKLPNSTRLGGTDRNDTNAKVIKEFYKKTDLKNAYVTKDGMNKQDQLIDALAVGVLGAKNQSPVVLVGKNLSASQKSLVNSKSFDKITKVGGNGNETAFNEMKSLQEVKTVEAKTISELKSAIDKATANDVINFKPTSEVKEAFTIQTDKAVTVNLNGTYTKTVTINMPNGDVNNYAKVDDVVIDDVKDGTFVNYGKITNLKVNDKNGAKIENNSKGEIGSLTVASGASQVKVTNGGKITTVTNNSKGTTIDNKGTISSVKGDNSPTISGNSPSSNSSGGSSSSGGSSGGSSGGSSSSKVGQIKFSATDKQIKMASGDKTVDPSDNTYILKLTNGTVKDGDVKANVKVAGLPSGLDYTAVGNRSANTITITVSGTTSQSIQNDLNNVSVLVKAGAVSGTGATDSIANTTFEIKKYVAAPAVGQLTFDATDKQIKMASGDKTVDPSDDTYVLTLTKGTAKDGDIKANVEVTGLPSGLDYTAEGDSSANTITIPVSGTASPAVQTDLDNVSVLVKAGAVSETTATDSAANATFEVKKYVAPAVGQLTFDATDKQIKMASGDKTVDPSDDTYVLTLTKGTAKDGDIKANVEVTGLPSGLDYTAEGDSSANTITITVSGTASQAVQTDLDNVSVLVKAGAVSETTATDSAANATFEVKKYVAPAIGQLTFDATDKQIKMASGDKTVDPSDDTYVLTLTKGTAKDGDIKANVEVTGLPSGLDYTAEGDSSANTITITVSGTASQAVQTDLDNVSVLVKAGAVSETTATDSAANATFEVKKHASDPISTIGKISSGLSSLFNILK",glycan array binding signal (z-score),[1],-0.216
same,glycan array binding signal (z-score),[2],-0.321
same,glycan array binding signal (z-score),[3],-0.297
same,glycan array binding signal (z-score),[4],-0.327
same,glycan array binding signal (z-score),[5],-0.328
same,glycan array binding signal (z-score),[6],0.192
same,glycan array binding signal (z-score),[7],-0.324
same,glycan array binding signal (z-score),[8],-0.346
same,glycan array binding signal (z-score),[9],-0.313
same,glycan array binding signal (z-score),[10],0.484
same,glycan array binding signal (z-score),[11],1.09
same,glycan array binding signal (z-score),[12],-0.329
same,glycan array binding signal (z-score),[13],0.035
same,glycan array binding signal (z-score),Neu5Ac(a2-3)Gal(b1-4)Glc,-0.246
same,glycan array binding signal (z-score),[14],-0.167
same,glycan array binding signal (z-score),[15],-0.343
same,glycan array binding signal (z-score),[16],-0.318
same,glycan array binding signal (z-score),[17],-0.276
same,glycan array binding signal (z-score),[18],-0.335
same,glycan array binding signal (z-score),[19],0.09
same,glycan array binding signal (z-score),[20],0.405
same,glycan array binding signal (z-score),[21],-0.29
same,glycan array binding signal (z-score),[22],-0.341
same,glycan array binding signal (z-score),[23],-0.232
same,glycan array binding signal (z-score),[24],-0.316
same,glycan array binding signal (z-score),[25],-0.08
same,glycan array binding signal (z-score),[26],-0.146
same,glycan array binding signal (z-score),[27],-0.35
same,glycan array binding signal (z-score),[28],0.368
same,glycan array binding signal (z-score),[29],-0.172
